13 sequences from the supplement of paper PMC10441789 can be followed below.

What all share (test): antibody binding signal (normalised fluorescence) (arbitrary fluorescence units); higher = stronger serum antibody binding to peptide
In experiment [1] the test system is pooled sera of chronic Chagas disease patients, Argentina. The method, then:
(§1)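 Microarray of 15-residue peptides over residues 30-55 of Trypanosoma cruzi TSSAII, each with 1 to 10 substitutions at naturally variable positions, probed with one serum pool per country.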

In experiment [2] the test system is pooled sera of chronic Chagas disease patients, Bolivia. Here is the method: as §1
Experiment [3] relates to pooled sera of chronic Chagas disease patients, Brazil. The method, then:
as §1

For experiment [4], the system named is pooled sera of chronic Chagas disease patients, Colombia. The method, then: as §1
In experiment [5] the test system is pooled sera of chronic Chagas disease patients, Mexico. Here is the method:
as §1

Experiment [6] relates to pooled sera of chronic Chagas disease patients, USA. Here is the method: as §1
Experiment [7] relates to pooled sera of uninfected people, Argentina. Here is the method:
as §1

The subject of experiment [8] is pooled sera of uninfected people, Bolivia. The method, then:
as §1

For experiment [9], the system named is pooled sera of uninfected people, Brazil. Here is the method:
as §1

For experiment [10], the system named is pooled sera of uninfected people, Mexico. The method, then: as §1
The subject of experiment [11] is pooled sera of uninfected people, USA. The method, then:
as §1

The other results are listed elsewhere or left out. Antibody binding of pooled human sera (four to six donors per pool; dilution not stated) to peptides of the Trypanosoma cruzi antigen TSSA on microarrays. Quantile-normalised fluorescence in arbitrary units, mean of duplicate arrays; higher = more binding. No active / inactive call. The uninfected pools are read here as the healthy donors of the same country. The strongest signals lie near the top of the scale (about 60,000).

For the sequence EKKTATGGAPSQSGA, the antibody binding signal in experiment [1] turned out to be 1480; in [2], 252; in experiment [3], 980; in [4], 2830; in experiment [5], 1050; in [6], 811. In addition, the antibody binding signal stood at 338 in [7]; 704 in experiment [8]; 112 in experiment [9]; 202 in experiment [10]; 617 in experiment [11].
Consider GKENKAAAGGTPSQP, for which the antibody binding signal was 824 in [1]; 578 in experiment [2]; 3470 in experiment [3]; 3760 in [4]; 2470 in [5]; 9140 in experiment [6]. Moreover, the antibody binding signal was 467 in [7]; 93.4 in [8]; 458 in experiment [9]; 353 in experiment [10]; 112 in experiment [11].
Take SSTPPSGKDKKAAAG: the antibody binding signal worked out at 7470 in experiment [1]; 522 in experiment [2]; 924 in experiment [3]; 440 in [4]; 34000 in experiment [5]; 743 in experiment [6]. In addition, the antibody binding signal in [7] was 159; in [8], 353; in experiment [9] it was 115; in [10] it was 128; in experiment [11] it was 116.
Take TEKKPATGGAPSQPG: the antibody binding signal in experiment [1] worked out at 2370; in [2], 526; in [3], 15200; in experiment [4] it was 2320; in experiment [5] it was 1680; in [6] it was 2500. The antibody binding signal in [7] was determined as 394; in [8], 1130; in experiment [9], 272; in experiment [10] it was 295; in experiment [11], 1050.
In the case of GKEKKAATGETPSPP, the antibody binding signal stood at 3630 in [1]; 434 in experiment [2]; 5320 in [3]; 1210 in experiment [4]; 3280 in experiment [5]; 8330 in [6]. The antibody binding signal in experiment [7] was determined as 196; in experiment [8], 115; in experiment [9], 82.5; in [10] it was 89; in experiment [11], 213.
On to SGKEKKPATGGTPSQ, for which the antibody binding signal in [1] was 3910; in [2] it was 411; in [3] it was 3770; in experiment [4], 2760; in [5] it was 3800; in experiment [6] it was 4230. The antibody binding signal in experiment [7] amounted to 307; in experiment [8] it was 139; in experiment [9], 194; in experiment [10], 88.9; in [11] it was 230.
Take TENKTAAGETPSQSG: the antibody binding signal amounted to 15200 in experiment [1]; 506 in experiment [2]; 2680 in experiment [3]; 119 in experiment [4]; 206 in experiment [5]; 1740 in experiment [6]. In addition, the antibody binding signal in experiment [7] was found to be 164; in experiment [8], 214; in experiment [9] it was 210; in [10] it was 259; in experiment [11] it was 112.
Take SGTENKPATGGAPSQ: the antibody binding signal was determined as 45600 in experiment [1]; 22800 in experiment [2]; 35600 in experiment [3]; 439 in [4]; 987 in [5]; 8760 in experiment [6]. Also, the antibody binding signal in experiment [7] turned out to be 745; in [8] it was 1930; in experiment [9], 273; in experiment [10], 322; in experiment [11], 248.
PSGKDNKTATGEAPS: the antibody binding signal worked out at 14500 in experiment [1]; 17100 in [2]; 14400 in [3]; 3180 in experiment [4]; 1550 in experiment [5]; 19500 in [6]. Also, the antibody binding signal turned out to be 362 in [7]; 345 in experiment [8]; 275 in [9]; 130 in experiment [10]; 198 in experiment [11].
Consider ISTPPSGTEKKTATG, for which the antibody binding signal is 31500 in experiment [1]; 13900 in experiment [2]; 25700 in [3]; 475 in experiment [4]; 11300 in experiment [5]; 4840 in experiment [6]. The antibody binding signal in [7] was determined as 746; in experiment [8], 316; in experiment [9], 145; in experiment [10] it was 191; in experiment [11] it was 134.
For TEKKPAAGETPSPPG, the antibody binding signal in [1] is 1130; in experiment [2] it was 243; in experiment [3] it was 4050; in [4], 391; in experiment [5], 396; in experiment [6], 2100. The antibody binding signal in experiment [7] was determined as 118; in experiment [8] it was 283; in experiment [9] it was 255; in experiment [10] it was 224; in experiment [11] it was 1410.
Regarding GTDKKPATGGTPSPS, the antibody binding signal in experiment [1] came to 1000; in experiment [2], 484; in experiment [3] it was 1530; in experiment [4], 7430; in [5] it was 1810; in [6], 1200. Also, the antibody binding signal is 219 in experiment [7]; 530 in experiment [8]; 627 in experiment [9]; 364 in [10]; 182 in [11].
Consider SGTEKKTAAGETPSP, for which the antibody binding signal in experiment [1] was found to be 277; in [2] it was 395; in experiment [3], 782; in [4] it was 526; in experiment [5], 470; in experiment [6], 2160. Besides, the antibody binding signal in experiment [7] was 120; in experiment [8], 420; in experiment [9] it was 236; in [10] it was 194; in experiment [11], 474.
